# Assay results reported in PubChem BioAssay (NCI).
# More than one record can exist for a structure, and the calls need not agree.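 Interpretation: 100, growth as untreated; towards 0, rising growth inhibition; 0, no net growth; 0 to -100, cell death. Compounds scoring below 10 were considered active.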 The source holds more than one record for some entries. This is not the full list of results. An entry can have further records. The screen tested this drug many times, at its own concentration, as given; one value stands for one run. Additions like (4×) say how often a value occurs here.
# Tested on: K-562 leukemia
# Test: NCI-60 one-dose screen, 48 h (100 = growth as untreated, 0 = no growth, -100 = all killed)
compound,measurement,setting,value
COc1cccc2c1C(=O)c1c(O)c3c(c(O)c1C2=O)C[C@@](O)(C(=O)CO)C[C@@H]3OC1CC(N)C(O)C(C)O1 (stereo not given in full),growth,"0.25 µM, runs of 2009","inactive: 30, 31.7, 35.1, 44.7, 29, 56.9, 58.5, 34.3, 34.5 (2×), 39.7, 39.9, 32.6, 27.3, 53.1 (2×), 43.6, 22.4, 65.7, 56, 46.5 (3×), 41.2, 42.7, 37.2 (2×), 43.4, 28.9, 51.5, 56.5, 51, 50, 51.7 (2×), 39.4, 44.3, 37.7 (2×), 51.1, 19.2, 41.4, 45, 36.6, 41.3, 37.1, 35.5, 36.8, 31.5, 31.1, 45.6 (2×), 36.3, 16.4, 38.2, 30.4, 39.6, 42.9, 66.1, 52.2, 70.5, 40.1, 50.7, 47.6%"
same,growth,"0.25 µM, runs of 2010","inactive: 50.6, 60.7, 47.2, 48, 44.9, 44.8, 58.3, 43 (2×), 65.5, 49.2, 37.1, 47.3, 49.5, 41.9, 47, 41.2 (2×), 40.3, 44.2, 49.1, 27.3, 36.2 (2×), 39 (2×), 33.2 (2×), 34.5, 37.8 (2×), 35.3, 33.4, 42.5, 38.2, 36.9, 67, 45.2, 35.1, 44.5 (2×), 31.9, 33.5, 36.1, 27.1, 53.5, 47.8, 36.6, 42.2, 35.2, 39.2, 40.2, 33.6%"
same,growth,"0.25 µM, runs of 2011","inactive: 42.5, 32.7, 37.5 (2×), 44, 41.7, 53, 42.4, 32.6, 37.7, 37.3, 48.7, 48, 38.5, 46.9 (2×), 63.1, 49.1, 55.2, 52.6, 50.6, 46.4, 39.4, 88.6, 37.9, 18.6, 36.6, 26.3, 31.9, 21, 28, 34.4, 26.4, 47.8, 48.6, 52.2, 38.9, 37.1, 41.4, 30%"
same,growth,"0.25 µM, runs of 2012","inactive: 54.6, 32.3, 48.2 (2×), 27.5, 46.1, 36.8, 43.7 (2×), 41.1, 30.8, 29.8, 32.2, 41.4, 21.5, 54, 32.1, 38.6, 34.6 (2×), 33.2, 27.4, 30.1, 33.5, 40.3, 39.4, 36, 40.8 (2×), 46.4, 48.3, 38.2, 36.7, 43.4, 38.5, 43.9, 42.2, 41.8, 58.3, 35.4, 37.3, 20.3, 39, 43.8 (2×), 69.6, 27, 39.9, 35.8, 52.9, 46.5, 44.9, 55.1, 56.7, 51, 50, 59.6, 30.5, 36.2, 23.8, 19.1, 29.4, 21 (2×), 31.6, 29.3, 41.2, 28.4, 18.4% and active: -6.85%"
same,growth,"0.25 µM, runs of 2013","inactive: 30.8, 23, 22.3, 29.9, 38.5 (2×), 41.6 (2×), 41.4, 43.2, 28.8, 37.3, 38.1, 31.7, 52.6, 51.1 (2×), 43 (2×), 49.4, 45.9, 27.4, 41.2 (2×), 40.3 (2×), 32.8, 55.2, 44.2 (2×), 36.8, 28.9, 46.1, 23.4, 48.4, 47.4, 50.3 (2×), 40.8, 64.6, 59, 34.3, 54.9, 39.8, 30.1, 39.5 (2×), 33.2 (2×), 27.8, 23.1, 19.9, 64.2, 56.9, 22.7, 47.3, 52.5, 47.8, 29.8, 21.5, 44.5, 28.7, 51.6, 54, 16.6, 41.7, 41, 20, 28.4, 27.1, 26.2, 24.8%"
same,growth,"0.25 µM, runs of 2014","inactive: 28.2, 20.4, 29.1, 15.9, 38.3, 17.5, 38.9, 41.5 (2×), 36.7, 25.2, 16.7, 47.5 (2×), 32.2, 52.7, 21.2, 45.3, 58.2, 28.9, 58.8, 32.4, 51.7, 44.6, 41.4, 56.4, 49.3, 50.4, 42.4, 42.7, 46.9, 48, 46.6, 43.4, 39.4, 50.7, 48.4, 47.9, 60.4, 59, 51.6, 47.6, 53.4, 48.2, 38.5, 41 (2×), 42.9, 46.2, 47, 47.4, 32.3, 38.4, 39.6, 41.6, 33.9, 38.8, 40.3, 33.4 (2×), 39.8, 41.9, 38.7, 32.6 (2×), 43, 44.5, 45.9, 34.4, 39.5%"
same,growth,"0.25 µM, runs of 2015","inactive: 51.8, 36.7, 35.8, 28.6, 25.5, 36 (2×), 36.4, 48.9, 32.2, 30.7, 47.4 (2×), 54.9, 26.3, 29.9, 33.1, 35.5, 26.4, 28.4, 48.6, 52.5, 44.7 (2×), 58, 51.6, 50.4, 48.7, 44.5, 54 (2×), 31.2, 29.2, 44.3, 44.4, 30.4, 44, 36.3, 37.2, 46.5, 48.4, 29.4, 44.8, 36.8, 45.6, 41.6, 67, 38.5 (2×), 42.7 (2×), 43.6, 39.9, 37.7, 41.7, 59.7, 37.3, 29.5, 32.9 (2×), 33.9 (2×), 39.7, 33.4, 37.5, 38.9, 39, 36.1 (2×), 40.7, 42.6, 55.7, 59, 44.1, 30.3, 31.6, 42.9, 35.2, 35.9, 47%"
same,growth,"0.25 µM, runs of 2016","inactive: 48.9, 51.6 (2×), 44.7, 46.3, 42.6, 32.7, 26.7, 26.2, 55.8, 45.6, 51, 43.4, 49.2, 44.5, 47, 29.8, 35.4, 30, 40.1, 35.2 (2×), 33.4, 34, 33 (2×), 37.7, 34.2 (2×), 31.9, 31.7, 27.5, 34.6, 31.6, 34.8, 36.9, 43.2, 47.1, 50.9, 49.3, 39, 46.9, 39.9, 44.6, 43.7, 45.4, 45.2, 42.5, 44.9, 41.3, 39.8, 48.1, 42.1, 47.6, 46.6, 47.8, 47.2, 43.6, 55, 56.3, 55.2, 53.8, 46.1, 52.4, 35.3, 38.5, 47.4, 57.5, 60.8, 41.5, 40.2, 38.9, 41.7, 40.5, 48.5, 51.4, 39.7, 39.4%"
same,growth,"0.25 µM, runs of 2017","inactive: 43.8, 43.2, 42.6, 35.5 (2×), 34.8 (3×), 32.5, 32.8 (2×), 31.4 (2×), 35.1, 31.2, 29.1, 33.8 (2×), 29.5, 33.6, 38.8, 24.1, 27.3 (3×), 30.5 (2×), 28.9, 38.2, 37.1, 31.5 (2×), 38.1, 33.5, 32.7, 28.7 (2×), 45, 33.1, 31.7 (2×), 35.2, 39.6, 30.4 (2×), 33.7, 27 (2×), 35.3, 33.4, 37.7, 18.4, 23.8, 34, 44, 34.1 (2×), 25.6, 35.4, 25.8, 31.9 (2×), 26, 30.2, 29, 32.3, 27.8, 36.7, 23.7, 31.1, 35.8 (2×), 32.2, 30.3, 44.8, 34.7, 34.2, 28.2%"
same,growth,"0.25 µM, runs of 2018","inactive: 39.4 (2×), 41.8, 36.3 (2×), 35.8, 33.5, 33 (2×), 31.6, 25.4, 36.8, 35.6 (3×), 35.4, 38.6 (2×), 39.8, 44, 37.5, 41.5, 37.8, 32.5, 41, 40.7, 43.4 (2×), 39.7, 32, 34.5, 37.2, 37.3, 42.6, 44.1, 40.5, 41.9, 36.4, 31.4, 32.4, 33.6 (2×), 38.2, 38.9, 15.7, 22.8%"
same,growth,"0.25 µM, runs of 2019","inactive: 25.8, 21.7 (2×), 24.8, 20.5, 26.2, 25, 30.5, 33.5, 29.8, 28.5 (3×), 25.7, 23.6 (2×), 27.7, 27.2, 32.5, 31.3 (2×), 33.2, 28.3, 31.9, 36.6, 31, 41.5, 30.7, 48, 39, 41, 44.5, 47.2, 28.2 (2×), 26.3, 25.4 (3×), 28.8 (2×), 25.6 (3×), 25.1, 26.1, 26, 27.9, 28, 30.3, 29.3, 27, 33.4%"
same,growth,"0.25 µM, runs of 2020","inactive: 19.8, 23.1, 31.1, 32.8, 27.8, 31.7, 36, 37.1, 36.1 (2×), 34.4, 38.1, 28.3, 29.1, 33.8, 29.2, 38.9, 33.1, 30 (2×), 41.2, 38.7, 41.1, 36.2, 39.6, 40.4%"
same,growth,"0.25 µM, runs of 2021","inactive: 37.1, 43.9, 33.5 (2×), 37.9, 43, 38.5, 38.3, 36.9, 40.2, 33.7, 33.3, 38.1 (3×), 31.2, 34.4, 33.2, 40.7, 33.1, 27.4, 27.8, 28.5, 35.5, 30.8, 32.4, 26.4, 28.4 (2×), 24.1, 27.1, 26.6, 34.6, 33.4 (2×), 41, 31.3, 32.6, 33, 28.8, 36.6 (2×), 36.7, 34.7, 40.4, 25 (2×), 28.1, 30.3, 24.9, 31.9, 22.6, 22.8, 32.5, 32.7%"
same,growth,"0.25 µM, runs of 2022","inactive: 31.9, 48.5, 20.9, 26.2, 31.4 (2×), 41.5, 35.3, 37.8, 33.9, 34.6, 33.3, 32.1, 22, 46.9, 64.9, 58.2, 52.6, 74.7, 28.4, 29.2, 34.3, 32.8% and active: -3.36%"
same,growth,"25 µM, runs of 1991","active: -26.8, -3.66, -4.57, 1.96, -46.6, -31.7, -38, -3.33, 0.164, -25.8, -27.3, 2.52, -27.9, -19.2% and inactive: 18.9, 22.8, 16.1, 18.3%"
